About 200 (0.44%) of roughly 45,000 compounds were called active. Inconclusive results (about 7%) are left out. The call rests on the fitted dose curve; in most records, active means well fitted activation curve with a large enough effect; inconclusive means small, poorly fitted or top-dose-only effect; inactive means no such curve, though single readings can be large or run the other way. The list shows a part of the results.
Test: qHTS of TDP-43 Inhibitors: NCGC Sytravon Library Screen; further: 0% is about no effect; nearly all actives have a fitted effect of over 55% in size
Details: yeast TDP-43 toxicity rescue, BacTiter-Glo growth, 24 h; series mostly up to 46.1 µM; growth rescue (activation): at the top concentration
Outline: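 TDP-43-expressing yeast, pregrown in raffinose, seeded at OD600 0.02 in galactose medium with compound for 24 hr at 30 deg C. Growth read by BacTiter-Glo luminescence, so rescue of toxicity appears as activation.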

Row | Structure (SMILES) | growth rescue (activation)
1 | NS(=O)(=O)c1cccc(NC(=O)COC(=O)Cc2ccc(Cl)cc2)c1 | inactive: -0.0613%
2 | COc1ccccc1/C=C/CN1CCN(Cc2ccc(C)o2)C(CCO)C1 (stereo unspecified) | inactive: 8.38%
3 | O=C(Cc1ccccc1Cl)Nc1cccc(S(=O)(=O)N2CCOCC2)c1 | inactive: 17.3%
4 | N#C/C(=C\C1=C(N2CCOCC2)C(=C/c2cccc([N+](=O)[O-])c2)/CC1)C(=O)Nc1ccccc1F | inactive: 5.39%
5 | CCOc1ccc(N2CC(C(=O)N3CCCCCC3)CC2=O)cc1 (stereo unspecified) | inactive: 12.4%
6 | CSc1ccccc1C(=O)C1CCCN(C(=O)CCN2CCCO2)C1 (stereo unspecified) | inactive: 3.23%
7 | Cc1csc(SCC(=O)NC2CCS(=O)(=O)C2)n1 (stereo unspecified) | inactive: -30%
8 | CCOc1ccc(S(=O)(=O)NCc2cccnc2)c2ccccc12 | inactive: 7.01%
9 | O=C(O)c1cc(N/N=C/c2c[nH]c3ccccc23)ccc1Cl | inactive: 0.654%
10 | CC(C)[C@H](NS(=O)(=O)c1ccccc1)C(=O)Nc1nccs1 | inactive: -12.1%
11 | COc1cc(/C=N/n2cnc3scc(-c4cccs4)c3c2=O)cc(OC)c1OC | inactive: 11.4%
12 | COc1ccc(N=Cc2c(O)n(-c3ccc(OC)cc3)c(=O)c3ccccc23)cc1 | inactive: -8.43%
13 | CCC1CCCCN1C(=O)c1ccc([N+](=O)[O-])o1 (stereo unspecified) | inactive: 21.1%
14 | CC(=O)NC(=S)Nc1ccccc1C(=O)Nc1ccccc1 | inactive: 0.203%
15 | Fc1ccc(Oc2cnc3ccccc3n2)cc1 | inactive: 10%
16 | CCCCOC(=O)c1ccc(S(N)(=O)=O)o1 | inactive: 5%
17 | Cc1ccnc2nc(C(=O)OCC(=O)N3CCc4ccccc43)nn12 | inactive: -1.35%
18 | CCCn1cnc2cc(NCc3cccs3)ccc21 | inactive: -5.47%
19 | Cn1cccc1/C=N/NC(=O)c1cc2ccccc2cc1O | inactive: 7.82%
20 | COc1ccc(CC(=O)O/N=C(\N)c2ccccn2)cc1 | inactive: 11.3%
21 | CCCOc1ccc(CN2C(=O)C(=O)c3cccc(C)c32)cc1 | inactive: -92.8%
22 | Cc1ccc(-n2nc(C)c3c(C)c(CCC(=O)NCc4ccc(Cl)cc4)c(C)nc32)cc1 | inactive: -4.28%
23 | CSc1nnc(C)c(/C=C/Nc2ccc(F)cc2F)n1 | inactive: 4.72%
24 | COc1cccc(NC(=O)N2CCC(NC(=O)c3ccco3)CC2)c1 | inactive: 3.97%

Row | Structure (SMILES) | growth rescue (activation)
25 | CCc1nnc(NS(=O)(=O)c2ccc(NC(=O)/C=C/C(=O)O)cc2)s1 | inactive: -20%
26 | O=C(N/N=C/c1ccccn1)c1ccc(NC(=O)c2ccccc2Cl)cc1 | inactive: 11.9%
27 | Cc1ccc(CNC(=O)CN2C(=O)NC(C)(c3ccccc3Cl)C2=O)cc1 (stereo unspecified) | inactive: 6.8%
28 | CC1(C)CC(=O)C2=C(C1)C(c1cn(-c3ccccc3)nc1-c1ccccc1)C(C#N)=C(N)O2 (stereo unspecified) | inactive: 11%
29 | NNc1ccc(Cc2ccc(Cl)cc2Cl)nn1 | inactive: 24%
30 | CC(NC(=O)/C=C/c1ccc(Br)cc1)c1ccc(Cl)cc1 (stereo unspecified) | inactive: 3.64%
31 | Cc1cccc(N)c1-c1c(C)cccc1N | inactive: 6.12%
32 | O=C(CNC(=O)c1ccc(F)cc1)N/N=C/c1cccnc1 | inactive: 0.713%
33 | N#Cc1cc(C(=O)c2ccccc2O)cn(-c2nccs2)c1=O | inactive: -7.44%
34 | COc1cc(CN2CCC(C(=O)NC(c3ccccc3)c3ccsc3)CC2)cc(OC)c1 (stereo unspecified) | inactive: -5.11%
35 | O=C(NCc1n[nH]c(=S)n1-c1ccc(Br)cc1)c1ccc(S(=O)(=O)N2CCOCC2)cc1 | inactive: 5.11%
36 | COC(=O)c1cc(C(=O)OC)cc(N2C(=O)CN=C2Nc2nc(C)cc(C)n2)c1 | inactive: -7.77%
37 | CCN(CC)c1ccc(NS(=O)(=O)c2ccc(OC)cc2)cc1 | inactive: -1.76%
38 | CCCc1cc(=O)[nH]c(SCC(=O)N2CCN(S(=O)(=O)c3ccc(C)cc3C)CC2)n1 | inactive: 12.1%
39 | Cc1ccc(OCC(=O)NNC(=O)CSc2nnc(-c3ccc(C)cc3)n2C)cc1 | inactive: 5.23%
40 | COc1cccc(N2C(=O)[C@H]3C(C(=O)c4cnccn4)=NN[C@H]3C2=O)c1 | inactive: -3.91%
41 | COc1ccc(Nc2nc(C)cc(C)c2C(N)=O)cc1OC | inactive: 4.65%
42 | S=C(NCc1ccccc1)NNc1nc2ccccc2[nH]1 | inactive: 23.5%
43 | Cc1cnc(C(=O)OCc2c(C)cc(C(C)(C)C)cc2C)cn1 | inactive: -23.8%
44 | COc1cc(NS(=O)(=O)c2ccc3[nH]c(=O)oc3c2)cc(OC)c1 | inactive: -6.24%
45 | Fc1cccc(/C=N/NC(=S)Nc2ccccc2Cl)c1 | inactive: 0.31%
46 | O=[N+]([O-])c1cc(S(=O)(=O)N2CCCC2)ccc1SCCO | inactive: 4.95%
47 | OC(c1ccc(Cl)c(Cl)c1)c1ncc(-c2cccc(F)c2)[nH]1 (stereo unspecified) | inactive: 8.71%
48 | CC(C)NC(=O)C1(C)CCN1C(=O)c1cccc(F)c1 (stereo unspecified) | inactive: 8.22%

Row | Structure (SMILES) | growth rescue (activation)
49 | O=C(NCCc1c[nH]c2ccccc12)c1cnccn1 | inactive: 2.69%
50 | Cc1cc(CSc2ccccc2C(=O)O)on1 | inactive: 2.82%
51 | COc1ccc(C(=O)N2CCCC(c3ccccc3)=N2)cc1 | inactive: 2.44%
52 | CCC(=O)c1ccccc1OCCN1CCN(CC)CC1 | inactive: -8.47%
53 | O=C(CSc1ncccn1)c1ccccc1Br | inactive: 7.58%
54 | Cc1cc(C)n2ncc(C(=O)NC3CCCCC3)c2n1 | inactive: 0.625%
55 | COCCOc1ccc(C(F)(F)F)cc1NC(=O)c1ccc(C(F)(F)F)cc1 | inactive: -14.8%
56 | CC(OC(=O)C1=COCCO1)C(=O)Nc1cccc(S(=O)(=O)N2CCOCC2)c1 (stereo unspecified) | inactive: 0.0075%
57 | CCSC1=N/C(=C\c2ccccc2)C(=O)N1c1ccc(OC)cc1 | inactive: 4.74%
58 | COCCNC(=O)C1CCCN(C(=O)c2ccnc(Cl)c2)CC1 (stereo unspecified) | inactive: 7.11%
59 | CC1CC(C)CN(C(=O)C(Cc2ccccc2)n2cccc2)C1 (stereo unspecified) | inactive: 17.3%
60 | O=C(NC1CCCC1)C(c1ccncc1)N(C(=O)Cn1nnc(-c2ccccc2F)n1)c1cccc(F)c1 (stereo unspecified) | inactive: -1.88%
61 | COC(=O)c1ccc(N)nc1 | inactive: 0.557%
62 | CN1CCC(NCCC(c2ccc(F)cc2)c2ccc(Cl)cc2)CC1 (stereo unspecified) | inactive: 7.51%
63 | CNC(=O)c1nc(C)n(-c2ccc([N+](=O)[O-])cc2)n1 | inactive: -18.2%
64 | O=C(NCCN1CCOCC1)c1ccc2c(c1)N(Cc1ccc(Cl)cc1)C(=O)CS2 | inactive: 12.4%
65 | CSc1cccc(NC(=S)N2CCCN(Cc3ccccc3F)C2)c1 | inactive: 12.5%
66 | Nc1ccc(Oc2ccc3c(c2)C(=O)N(CC2CCCO2)C3=O)cc1 (stereo unspecified) | inactive: 36.8%
67 | CCCNC(=O)C1(C)CCCN(Cc2ccc(C#N)cc2)C1 (stereo unspecified) | inactive: 1.04%
68 | CCOC(=O)N1CCN(C(=O)C2CCN(S(=O)(=O)c3cc(C)ccc3OC)CC2)CC1 | inactive: -2.12%
69 | Cc1cccn2c(=O)c3cc(C(=O)NCCCOC(C)C)sc3nc12 | inactive: 1.33%
70 | Cc1ccc(C(=O)N2CCCC(CCC(=O)N3CCN(c4ccccn4)CC3)C2)cn1 (stereo unspecified) | inactive: -10.4%
71 | Cc1nn(-c2ccc(F)cc2)c(Cl)c1/C=C(/CC(=O)O)c1nc2ccccc2s1 | inactive: -87.9%

— PubChem BioAssay AID1347073 (National Center for Advancing Translational Sciences (NCATS), 2019)
